From paper PMC9574860, “Chemical Toolkit for PARK7: Potent, Selective, and High-Throughput” (Journal of Medicinal Chemistry, 2022)
The whole screen tested about 7,900 compounds, of which about 400 (5.1%) showed an effect of 50% or more. The list shows a part of the results.

The compounds below were run against Parkinson's disease protein 7 (PARK7/DJ1) (human, UniProt Q99497) (assay: primary screen, percent inhibition; read as competition with a fluorescent probe by fluorescence polarization; higher = more effect of the substance). Settings: 100 µM.
Summary of the method: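 Fluorescence-polarization probe displacement (JYQ-107, 20 nM final, 2 h) after 2 h preincubation of PARK7 (0.2 μM final) with each fragment at 100 μM final. Read-out ex/em 480/520 nm; remaining activity derived from FP signal loss relative to reference controls.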

Parkinson's disease protein 7 (PARK7/DJ1), sequence (Q99497 whole entry, looked up, the tested form may be a part): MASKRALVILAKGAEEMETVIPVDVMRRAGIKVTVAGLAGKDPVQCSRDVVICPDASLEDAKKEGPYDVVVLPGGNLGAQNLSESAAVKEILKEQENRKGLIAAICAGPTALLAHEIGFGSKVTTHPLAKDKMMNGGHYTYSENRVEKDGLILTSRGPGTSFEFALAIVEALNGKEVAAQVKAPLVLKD

SMILES | Inhibition % [%]
C=CC(=O)NC1CCN(C(=O)CC)C1 (centres unmarked) | 4.56
CC(C)c1cccc(C#N)n1 | 2.61
Cc1ccc(S(=O)(=O)F)c2c1NCCC2 | 4.21
Nc1ccccc1S(=O)(=O)F | 44.7
C=CC(=O)N1CCC(C)(C)S(=O)(=O)CC1 | 9.68
O=C(CCl)NC1CCCC(C(F)(F)F)C1 (centres unmarked) | 5.79
O=C(CCl)Nc1cccc2cccc(C(=O)O)c12 | 11.2
CC1(F)CCN(c2ccc(C#N)nc2)C1 (centres unmarked) | 11.9
Cc1cnn(-c2cccc(B3OC(C)(C)C(C)(C)O3)c2)c1 | 1.38
Cl.O=C(CCl)Nc1nc(CN2CCCC2)cs1 | 5.7
OB(O)c1cccc(C2CCC2)c1 | -1.61
COCc1cccc(CNC(=O)CCl)c1 | 4.03
C=CC(=O)N1CCCC(c2nn(C)cc2C(=O)O)C1 (centres unmarked) | 0.724
CC(C)(C)CC1CCCN1C(=O)CCN1C(=O)CCC1=O (centres unmarked) | 1.67
O=S(=O)(Oc1ccccc1C(F)(F)F)c1c[nH]cn1 | 10.4
C=CC(=O)NC1CCCSC1 (centres unmarked) | 2.15
CC1(C)OB(c2cccc(OCCN3CCCC3)c2)OC1(C)C.Cl | 6.33
CC1CCc2nc(NC(=O)CN3CCSC3=O)sc2C1 (centres unmarked) | 9
CC(N)C1CCCN(C(=O)C=Cc2ccc(Cl)s2)C1.Cl (centres unmarked) | 8.86
CC(=O)Nc1ccc(S(=O)(=O)F)cc1 | 15.8
C=CC(=O)NC1COc2cccc(Cl)c21 (centres unmarked) | 9.93
O=C1OCCC1N1CCN(C(=O)c2ccc(F)cc2)CC1 (centres unmarked) | 7.62
N#Cc1ncccc1N1CCCC(F)C1 (centres unmarked) | 6.34
O=C(CCCl)Nc1cccc(Cl)c1 | -0.704
N#Cc1ncn(CC(=O)N2CCc3ccccc3C2)n1 | 1.35
C=CC(=O)Nc1ccc2c(c1)CCCO2 | 7.61

SMILES | Inhibition % [%]
N#Cc1ccc(N2CCC3CCCCC32)cn1 (centres unmarked) | 1.54
Cc1cc(C(=O)N2CCC(B(O)O)C2)ccn1 (centres unmarked) | 24.9
COc1ccc(CN2CCN(C(=O)CCl)CC2)cc1.Cl | 10.6
Cc1nn(C)c(Cl)c1C=CC(=O)N1CCOC(C)C1 (centres unmarked) | 8.05
ClCCNc1nc2ccccc2[nH]1 | 5.2
Oc1cc(C(F)(F)F)nc(S)n1 | 6.07
COc1ccc(OCC2CO2)cc1 (centres unmarked) | 27
C=CC(=O)NCC(=O)Nc1ccc2c[nH]nc2c1 | 7.37
C=CC(=O)N[C@H](C(=O)O)c1ccccc1 | 3.77
Cc1nn(C)c(C)c1C=CC(=O)N1CCCCCC1 | 4.15
C=CC(=O)N1CC(Cc2cnn(C)c2)C1 | 4.01
C=CC(=O)N1CCC(C2CCOC2)C1 (centres unmarked) | 13.9
C=CC(=O)N1CCN(c2ccccc2OCC)CC1 | 4.99
N#CC(=Cc1csc(-c2ccsc2)n1)C(=O)O | 2.32
CC(C)(C)c1ccc(C(=O)NNC(=O)CCl)cc1 | 11
Cc1ccc(S(=O)(=O)n2nc(C)cc2C)cc1 | 2.3
COCCc1nc(S(=O)(=O)F)n[nH]1 | 44.6
CCOC(=O)C1CC1B1OC(C)(C)C(C)(C)O1 (centres unmarked) | -0.114
CCN(C(=O)CCl)c1ccc(F)cc1 | 31.3
C=CC(=O)N1CCC(n2ccc(C)n2)CC1 | -1.67
C=CC(=O)Nc1nnc(C)c2ccccc12 | 14.7
CC1(C)OB(c2ccc(F)cc2)OC1(C)C | 3.99
C=CC(=O)NCCN(C)C1CCCC1 | 8.04
C=CC(=O)Nc1cccc(F)c1C | 7.6
NS(=O)(=O)c1cccc(NC(=O)Oc2ccccc2)c1 | 4.87
C=CC(=O)N1CCCN(c2nnc(C(F)(F)F)s2)CC1 | 3.88

SMILES | Inhibition % [%]
Cc1ccc(NC(=O)CCl)cc1[N+](=O)[O-] | 37.9
Cn1cc(C(=O)CCl)nn1 | 3.33
O=C(CCl)Nc1nnc(CC(F)(F)F)o1 | 4.09
Cc1cc(C)c2c(O)nc(S)nc2n1 | 8.38
COc1cc(F)ccc1N1CCN(C2CCOC2=O)CC1 (centres unmarked) | 7.6
C=CC(=O)N1CCC(C)S(=O)(=O)CC1 (centres unmarked) | 7.1
O=C(C1CCOCC1)N1CCCC(S(=O)(=O)F)C1 (centres unmarked) | 8.98
C=CC(=O)NC1COCC1CC (centres unmarked) | 6.4
O=S1(=O)C=CC(O)C1 (centres unmarked) | 4.75
COc1ccc(C=CC(=O)N2CCCC(O)C2)cc1F (centres unmarked) | 9.41
Cc1nn(-c2nccs2)cc1B1OC(C)(C)C(C)(C)O1 | 4.59
N#Cc1cccc(F)n1 | 4.58
CC(C)C1NC(=O)C12CCCO2 (centres unmarked) | 4.3
O=C1NC(C2CCOCC2)C12CCC2 (centres unmarked) | 8.16
N#Cc1[nH]nnc1-c1ccccc1 | 7.59
N#Cc1ccncc1C(=O)O | 12.3
N#Cc1ccc(N2CCCC2CF)cn1 (centres unmarked) | 6.88
CCCNCc1ccc(B2OC(C)(C)C(C)(C)O2)cc1 | 6.99
CC1N=C(S)N(CCc2ccccc2)C1=O (centres unmarked) | 3.61
O=C(CCl)Nc1ccccc1C(=O)c1ccccc1 | 8.12
O=C(CCl)NC(=O)NC1CC1 | 10.7
CC(C)(C)Nc1cc(F)c(S(=O)(=O)F)cc1N | 7.67
O=C(Nc1ccc(-c2noc(=O)[nH]2)cc1)C1CC1 | 5.01
O=C(O)C1CC(c2ccccc2)OC1=O (centres unmarked) | 9.1
N#Cc1ccc(S(=O)(=O)F)cc1 | 60.6
OB(O)c1cccc2c1OC(F)(F)O2 | 4.86

SMILES | Inhibition % [%]
Cc1cc(C(=O)CCl)c(C)n1CC1CCCO1 (centres unmarked) | 3.43
CC1(C)COCCN1Cn1nc(-c2ccccc2)oc1=O | 8.59
N#Cc1nc(Cl)cc(N)c1N | 13.7
CC1CC(Sc2nccn2-c2ccccc2)C(=O)O1 (centres unmarked) | 6.06
O=C(CCl)NNC(=O)Cc1cccc2ccccc12 | 3.35
CC1Oc2ccc(B3OC(C)(C)C(C)(C)O3)cc2NC1=O (centres unmarked) | 12.4
O=c1[nH]c(-c2ccccc2)no1 | 34.7
OB(O)c1ccc(Cn2ccnc2)cc1 | 6.33
O=S1(=O)CCC(Cl)CC1 | 2.86
O=c1oc(-c2ccc(F)cc2)nn1CN1CCSCC1 | 1.98
C=CC(=O)N[C@@H]1CCC(=O)N[C@H]1c1ccnn1C | 8.62
C=CS(=O)(=O)C1CCCC1 | 10.5
CN(CC1CCCCC1)C1CCOC1=O (centres unmarked) | 4.81
C=CC(=O)N1CCN(C(C)c2ccc(F)cc2F)CC1 (centres unmarked) | 15.3
Cl.NCCCNS(=O)(=O)C=Cc1ccccc1Cl | 14.8
C=CC(=O)N1CCCC(C(N)=O)C1 (centres unmarked) | -0.0694
C=CC(=O)N1CCCC1c1ccc(F)cc1 (centres unmarked) | 7.08
C=CC(=O)N1CCOC(C2CC2)C1 (centres unmarked) | 9.62
C=CC(=O)N1CCN(c2cc(C)nc3ncnn23)CC1 | 8.09
O=C(CCl)Nc1ccccc1N1CCCC1=O | -0.367
COc1ccc(NS(=O)(=O)C=Cc2ccccc2)cc1 | 1.18
CC1CCc2ccccc2N1C(=O)CCl (centres unmarked) | 100
COc1ccc(N(CC(F)(F)F)C(=O)CCl)cc1 | 36.5
Cc1cccc(C(=O)O)c1NC(=O)CCl | 5.7
C=CC(=O)NC1CCc2ccccc2C1 (centres unmarked) | 10.4
Cc1cccc(S(=O)(=O)CCCn2ccnc2C#N)c1 | -0.0399

SMILES | Inhibition % [%]
C=CC(=O)N1CCC(C(=O)O)(c2ccccc2)C1 (centres unmarked) | 7.9
O=C(CCl)NCC#Cc1cccc(C(F)(F)F)c1 | 6.88
CN(CCOc1ccc(Cl)cc1)C(=O)CCl | 63.6
Cc1[nH]c(=O)nc(S)c1C(=O)O | 18.1
C=CC(=O)NC1CCCc2c1cnn2CC (centres unmarked) | 8.99
CC1(C)OB(c2cccc(C(F)(F)C(F)(F)F)c2)OC1(C)C | 5.14
CN(C)C(=O)n1nnc2ccccc21 | 6.1
C=CC(=O)N(Cc1ccc(OC)cc1)C1CCS(=O)(=O)C1 (centres unmarked) | 6.03
O=C1OCCC1Sc1nc2ncccn2n1 (centres unmarked) | 4.5
CC(C(=O)N1CCc2ccccc21)N1C(=O)CCC1=O (centres unmarked) | 15
O=C1NC(c2ccccc2)C12CCCCC2 (centres unmarked) | 25.3
C=CC(=O)N1CCC(NC(C)=O)(c2nc(C)cs2)C1 (centres unmarked) | 5.8
C=CC(=O)N1CCN(CC2CCCO2)CC1 (centres unmarked) | 22.1
Cc1ccc(C=CC(=O)N2CCCC(NS(C)(=O)=O)C2)o1 (centres unmarked) | 6.42
CC(C1CC1)N(C(=O)c1ccc(S(=O)(=O)F)cc1)C1CC1 (centres unmarked) | 3.18
C=CC(=O)N[C@H]1CCc2ncsc2C1 | 17.4
O=C(O)C1CN(C(=O)C=Cc2ccc(Cl)s2)CCO1 (centres unmarked) | 7.53
O=C1OCCC1N1CC=C(c2ccc(O)cc2)CC1 (centres unmarked) | -1.55
C=CC(=O)N1CC(c2ccsc2)CC1C (centres unmarked) | 13.7
O=C(CCl)Nc1ccc(F)c([N+](=O)[O-])c1 | 14.3
COc1ccc([C@@H]2O[C@H]2C)cc1 (racemic) | 6.69
O=C(CCl)NC1CC1 | 9.12
COC(OC)c1cc[nH]n1 | 0.954
C=CC(=O)N1CCN(C(=O)c2cnoc2C)CC1 | 2.64
